Laboratory results published in PubChem BioAssay (Tox21).
“And” between values parts separate entries of the source, which are not always exact repeats. Equal values may be shown once. The inconclusive results got no clear call from the source; some entries with a clear call stand among them for comparison. For some assays here: Potencies of inconclusive entries are doubtful fits and often do not repeat. The source made the active and inactive calls. Unless noted, calls come from the whole dose curve.

What was measured:
[1] = qHTS assay for small molecule agonists of the antioxidant response element (ARE) signaling pathway (AID 743202; active = well fitted activation curve with a large enough effect in the signal ratio in the repeat runs, not every such curve was filed as active; inconclusive = weak or mixed curves, or effect the other way; inactive = no such curve, though single readings can be large or run the other way; the % refers to the signal ratio; note: potency is the fitted concentration of half-maximal effect; for activation: % is set by controls: 0 for no effect and ±100 for the full control effect); details: HepG2 ARE-bla reporter, beta-lactamase FRET, 16 h; activation: at 73.3 µM (top of the series) unless noted
Method in brief: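 HepG2 ARE-bla reporter line, 2,000 cells/well; 5 h preincubation 37 C/5% CO2; compound (DMSO) 16 h 37 C; B/G FRET substrate 2 h RT; fluorescence intensity.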

[2] = biological target: Peroxisome proliferator-activated receptor delta (Homo sapiens) (UniProt Q03181); assay: qHTS assay to identify small molecule agonists of the peroxisome proliferator-activated receptor delta (PPARd) signaling pathway (AID 743212); details: HEK293H PPARd-UAS-bla, beta-lactamase FRET ratio, 17 h; activation: at 62.6 µM (top of the series) unless noted; note: % is set by controls: 0 for no effect and ±100 for the full control effect
Sequence of UniProt Q03181 (Q03181 whole entry, looked up): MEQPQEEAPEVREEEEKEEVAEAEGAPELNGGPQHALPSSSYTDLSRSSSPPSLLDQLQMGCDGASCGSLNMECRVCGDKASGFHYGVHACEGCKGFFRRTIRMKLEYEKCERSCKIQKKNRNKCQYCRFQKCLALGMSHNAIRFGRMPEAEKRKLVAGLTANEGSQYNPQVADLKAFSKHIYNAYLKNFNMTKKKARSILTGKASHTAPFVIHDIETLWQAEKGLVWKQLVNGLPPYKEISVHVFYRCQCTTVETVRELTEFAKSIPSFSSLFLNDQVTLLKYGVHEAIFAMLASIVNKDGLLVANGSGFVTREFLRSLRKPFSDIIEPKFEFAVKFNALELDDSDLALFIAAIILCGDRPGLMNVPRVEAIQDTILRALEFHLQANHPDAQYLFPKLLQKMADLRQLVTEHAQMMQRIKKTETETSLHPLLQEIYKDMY
Method in brief: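 Read-out: beta-lactamase FRET fluorescence after 2 h room-temperature incubation with LiveBLAzer B/G substrate. Cells were HEK293H carrying a UAS-bla reporter for PPARd, treated at 37 C with DMSO-dissolved compounds.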

[3] = qHTS assay to identify small molecule antagonists of the peroxisome proliferator-activated receptor delta (PPARd) signaling pathway - cell viability counter screen (AID 743213; active = well fitted curve in the direction sought with a large enough effect in the repeat runs; inconclusive = weak or mixed curves; inactive = no such curve, though single readings can be large; an effect the other way counts as inactive or inconclusive; note: nearly all actives have a fitted effect of over 50% in size; note: potency is the fitted concentration of half-maximal effect; for viability change, negative = cytotoxic: % is set by controls: 0 for no effect and ±100 for the full control effect); details: PPARd-bla HEK293H viability, CellTiter-Glo luminescence, 17 h; viability change, negative = cytotoxic: at 62 µM (top of the series) unless noted
Method in brief: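 Viability counter-screen, qHTS format: PPARd-bla HEK293H, L165041 300 nM final, 17 h compound exposure at 37 C, CellTiter-Glo luminescence after 30 min RT.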

[4] = qHTS assay to identify small molecule agonists of the AP-1 signaling pathway (AID 1159526); details: ME-180 (cervical carcinoma) AP-1-bla reporter, beta-lactamase FRET ratio, 5 h; activation: at 76.8 µM (top of the series) unless noted; note: potency is the fitted concentration of half-maximal effect; for activation: % is set by controls: 0 for no effect and ±100 for the full control effect
[5] = qHTS assay to identify small molecule agonists of the peroxisome proliferator-activated receptor delta (PPARd) signaling pathway - cell viability counter screen (AID 743211; active = well fitted curve in the direction sought with a large enough effect in the repeat runs; inconclusive = weak or mixed curves; inactive = no such curve, though single readings can be large; an effect the other way counts as inactive or inconclusive; note: % is set by controls: 0 for no effect and ±100 for the full control effect; nearly all actives have a fitted effect of over 55% in size); details: PPARd-bla HEK293H viability, CellTiter-Glo luminescence, 17 h; activity change, negative = cytotoxicity: at 62.6 µM (top of the series)
Method in brief: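 Read-out: CellTiter-Glo luminescence, 30 min RT, measured in the same wells as the beta-lactamase reporter. Cells: GeneBLAzer PPAR delta UAS-bla HEK293H, 3000 cells/well, compound exposure 17 h at 37C.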

[6] = biological target: Peroxisome proliferator-activated receptor delta (Homo sapiens) (UniProt Q03181); assay: qHTS assay to identify small molecule antagonists of the peroxisome proliferator-activated receptor delta (PPARd) signaling pathway (AID 743215; active = well fitted inhibition curve with a large enough effect in the signal ratio in the repeat runs, not every such curve was filed as active; inconclusive = weak or mixed curves, or effect the other way; inactive = no such curve, though single readings can be large or run the other way; the % refers to the signal ratio;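 note: cells stimulated with agonist L165041 at 300 nM final during compound exposure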; note: potency is the fitted concentration of half-maximal effect); details: HEK293H PPARd-UAS-bla, beta-lactamase FRET ratio, antagonist, 17 h; ratio activity, negative = inhibition: at 62 µM (top of the series) unless noted
Method in brief: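 Fluorescence from cleaved LiveBLAzer B/G FRET substrate (2 h, room temperature) reports PPARd-driven beta-lactamase in HEK293H UAS-bla cells. Cells had been treated 17 h at 37 C with compound plus 300 nM final L165041.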

[7] = biological target: Vitamin D3 receptor (Homo sapiens) (UniProt P11473); assay: qHTS assay to identify small molecule antagonists of the vitamin D receptor (VDR) signaling pathway (AID 743223; active = well fitted inhibition curve with a large enough effect in the signal ratio in the repeat runs, not every such curve was filed as active; inconclusive = weak or mixed curves, or effect the other way; inactive = no such curve, though single readings can be large or run the other way; the % refers to the signal ratio; note: potency is the fitted concentration of half-maximal effect); details: VDR-UAS-bla HEK293T, beta-lactamase FRET ratio, 16 h; activity change, negative = inhibition: at 61 µM (top of the series) unless noted
Sequence of UniProt P11473 (P11473 whole entry, looked up): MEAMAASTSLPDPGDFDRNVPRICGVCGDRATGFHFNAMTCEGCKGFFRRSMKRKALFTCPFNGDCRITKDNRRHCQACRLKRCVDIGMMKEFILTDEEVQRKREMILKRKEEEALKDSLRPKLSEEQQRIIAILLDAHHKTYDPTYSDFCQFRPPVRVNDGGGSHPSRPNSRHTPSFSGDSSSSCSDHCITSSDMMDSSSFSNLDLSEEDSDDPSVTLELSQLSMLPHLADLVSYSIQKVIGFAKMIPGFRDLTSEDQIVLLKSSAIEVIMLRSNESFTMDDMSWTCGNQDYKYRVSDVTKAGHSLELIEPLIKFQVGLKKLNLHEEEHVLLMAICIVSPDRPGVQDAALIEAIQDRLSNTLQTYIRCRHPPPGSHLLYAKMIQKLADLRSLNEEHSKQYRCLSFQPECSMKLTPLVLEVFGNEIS
Method in brief: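 Beta-lactamase reporter read-out: FRET substrate fluorescence after 2 h at room temperature, following 16 h exposure of VDR-bla cells to test compound plus 3 nM (final) 1alpha,25-dihydroxyvitamin D3 agonist at 37C.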

[8] = biological target: Bile acid receptor (Homo sapiens) (UniProt Q96RI1); assay: qHTS assay to identify small molecule antagonists of the farnesoid-X-receptor (FXR) signaling pathway (AID 743217; active = well fitted inhibition curve with a large enough effect in the signal ratio in the repeat runs, not every such curve was filed as active; inconclusive = weak or mixed curves, or effect the other way; inactive = no such curve, though single readings can be large or run the other way; the % refers to the signal ratio; note: potency is the fitted concentration of half-maximal effect); details: HEK293T FXR-UAS-bla, beta-lactamase ratio, CDCA-stimulated, 16 h; activity change, negative = inhibition: at 62.6 µM (top of the series) unless noted
Sequence of UniProt Q96RI1 (Q96RI1 whole entry, looked up): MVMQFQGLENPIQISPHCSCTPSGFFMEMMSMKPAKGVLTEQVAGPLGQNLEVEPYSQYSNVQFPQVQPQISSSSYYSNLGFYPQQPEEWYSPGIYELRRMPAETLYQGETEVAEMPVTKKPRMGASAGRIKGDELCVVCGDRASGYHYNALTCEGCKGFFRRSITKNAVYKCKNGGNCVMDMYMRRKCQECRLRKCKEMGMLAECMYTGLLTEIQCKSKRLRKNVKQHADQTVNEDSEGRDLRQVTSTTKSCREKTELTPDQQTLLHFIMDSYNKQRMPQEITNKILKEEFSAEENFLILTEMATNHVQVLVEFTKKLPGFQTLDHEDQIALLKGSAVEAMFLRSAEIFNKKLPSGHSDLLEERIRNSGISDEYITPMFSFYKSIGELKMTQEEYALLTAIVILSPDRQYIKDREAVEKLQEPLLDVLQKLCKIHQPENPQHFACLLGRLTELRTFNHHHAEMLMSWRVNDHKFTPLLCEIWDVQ
Method in brief: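 FRET fluorescence after 2 h room-temperature LiveBLAzer loading gives the readout. Prior step: FXR-bla HEK 293T cells, seeded and incubated 5 h, received test compounds plus 50 uM final CDCA for 16 h at 37 °C.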

[9] = qHTS assay to identify small molecule agonists of the farnesoid-X-receptor (FXR) signaling pathway - cell viability counter screen (AID 743218; active = well fitted curve in the direction sought with a large enough effect in the repeat runs; inconclusive = weak or mixed curves; inactive = no such curve, though single readings can be large; an effect the other way counts as inactive or inconclusive; note: nearly all actives have a fitted effect of over 45% in size; note: potency is the fitted concentration of half-maximal effect); details: FXR-bla HEK293T viability, CellTiter-Glo luminescence, 16 h; viability change, negative = cytotoxic: at 62.6 µM (top of the series) unless noted
Method in brief: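 Readout: CellTiter-Glo luminescence, 30 min RT, multiplexed after the FXR-bla FRET reading. HEK 293T FXR-UAS-bla cells received compound 5 h post-plating and were incubated 16 h at 37 C.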

[10] = biological target: Bile acid receptor (Homo sapiens) (UniProt Q96RI1); assay: qHTS assay to identify small molecule agonists of the farnesoid-X-receptor (FXR) signaling pathway (AID 743220; active = well fitted activation curve with a large enough effect in the signal ratio in the repeat runs, not every such curve was filed as active; inconclusive = weak or mixed curves, or effect the other way; the % refers to the signal ratio; note: potency is the fitted concentration of half-maximal effect); details: HEK293T FXR-UAS-bla, beta-lactamase FRET ratio, 16 h; activation: at 62.6 µM (top of the series)
Method in brief: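 FXR-UAS-bla HEK 293T cells carrying a UAS-driven beta-lactamase reporter were plated for 5 h at 37C/5% CO2, then exposed to DMSO-dissolved Tox21 10K compounds for 16 h at 37C. A LiveBLAzer B/G FRET substrate was loaded for 2 h at room temperature before fluorescence reading.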

[11] = qHTS assay to identify small molecule agonists of the vitamin D receptor (VDR) signaling pathway - cell viability counter screen (AID 743224; active = well fitted curve in the direction sought with a large enough effect in the repeat runs; inconclusive = weak or mixed curves; inactive = no such curve, though single readings can be large; an effect the other way counts as inactive or inconclusive; note: potency is the fitted concentration of half-maximal effect; nearly all actives have a fitted effect of over 50% in size); details: VDR-bla HEK293T viability, CellTiter-Glo luminescence, 16 h; activity change, negative = cytotoxicity: at 62.6 µM (top of the series)
Method in brief: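 In parallel with the bla FRET readout, cytotoxicity toward VDR-bla cells after 16 h compound exposure was assessed by CellTiter-Glo, with luminescence recorded after a 30 min room-temperature incubation.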

[12] = biological target: Vitamin D3 receptor (Homo sapiens) (UniProt P11473); assay: qHTS assay to identify small molecule agonists of the vitamin D receptor (VDR) signaling pathway (AID 743222); details: HEK293T VDR-UAS-bla, beta-lactamase FRET ratio, 16 h; activation: at 63.5 µM (top of the series) unless noted; note: potency is the fitted concentration of half-maximal effect
Method in brief: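 Following 4 h attachment at 37C, VDR-bla cells (2,000 per well) received DMSO-dissolved compounds or controls. After 16 h incubation, LiveBLAzer B/G FRET substrate was added and fluorescence read 2 h later at room temperature.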

[13] = qHTS assay to identify small molecule antagonists of the vitamin D receptor (VDR) signaling pathway - cell viability counter screen (AID 743225; active = well fitted curve in the direction sought with a large enough effect in the repeat runs; inconclusive = weak or mixed curves; inactive = no such curve, though single readings can be large; an effect the other way counts as inactive or inconclusive; note: nearly all actives have a fitted effect of over 50% in size; note: potency is the fitted concentration of half-maximal effect); details: VDR-bla HEK293T viability, CellTiter-Glo luminescence, 16 h; viability change, negative = cytotoxic: at 61 µM (top of the series) unless noted
Method in brief: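 Viability counter screen run in the same wells as the beta-lactamase reporter assay: HEK 293T VDR-UAS-bla cells, 16 h compound exposure at 37C with 3 nM (final) 1-alpha,25-dihydroxyvitamin D3. CellTiter-Glo luminescence, 30 min, room temperature.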

[14] = qHTS assay to identify small molecule antagonists of the farnesoid-X-receptor (FXR) signaling pathway - cell viability counter screen (AID 743221; active = well fitted cell-killing curve with a large enough effect in the repeat runs, not every such curve was filed as active; inconclusive = weak or mixed curves, or effect the other way; inactive = no such curve, though single readings can be large or run the other way; note: potency is the fitted concentration of half-maximal effect; nearly all actives have a fitted effect of over 50% in size); details: FXR-bla HEK293T viability, CellTiter-Glo luminescence, 16 h; activity change, negative = cytotoxicity: at 62.6 µM (top of the series) unless noted
Method in brief: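 HEK 293T FXR-bla cells, 5 h pre-incubation; compound + CDCA 50 uM final, 16 h, 37 C; beta-lactamase FRET read first, then CellTiter-Glo luminescence, 30 min RT.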
Tags give direction and shape of the fitted curve or compound fluorescence and quenching.

In the case of Cn1c(=O)c2[nH]cnc2n(C)c1=O, the Potency [1] is reported as inconclusive: 68.6 µM [rising, partial curve, poor fit], the activation [2] is reported as inconclusive: 0.477% [at 81.1 µM] and the Potency [3] is reported as inconclusive: 198 nM [cytotoxic, full curve, poor fit] and inactive. For the same compound, the Potency [4] was “inactive”.

For CC(=O)N[C@@H](CCC(=O)O)C(=O)O, the activation [1] was inconclusive: -9.83%, the Potency [5] was “inactive” and the Potency [4] was “inactive”.

With CCOc1ccc(NC(=O)CC(C)=O)cc1 the Potency [1] was “inactive”, the Potency [3] was “inactive” and the ratio activity, negative = inhibition [6] was inconclusive: 21.5%. The Potency [7] was inconclusive: 43.6 µM [activator, partial curve, poor fit] and the Potency [4] was “inactive”.

For Cc1occc1C(=O)Nc1ccc(C(=O)N2CCC(F)(F)/C(=C\C(=O)N3CCC(N4CCCCC4)CC3)c3ccccc32)cc1, the Potency [1] was inconclusive: 19.1 µM [rising, partial curve], the Potency [3] was inconclusive: 17.2 µM [cytotoxic, single point] and the Potency [8] was “inactive”. For the same compound, the Potency [9] was inconclusive: 12.1 µM [cytotoxic, partial curve], the Potency [7] was “inactive” and the activation [4] was inconclusive: -2.92% [at 35.3 µM].

For CCCCCCCC(=O)OCC(COC(=O)CCCCCCC)OC(=O)CCCCCCC, the activation [1] was inconclusive: -14.6% and inconclusive: -10.2%, the Potency [3] was inconclusive: 24.5 µM [cytotoxic, partial curve, poor fit] and inconclusive: 12.3 µM [cytotoxic, partial curve, poor fit] and the Potency [6] was inconclusive: 15.4 µM [inhibitor, partial curve, poor fit] and inactive. The Potency [8] was inconclusive: 9.75 µM [inhibitor, partial curve, poor fit], the Potency [10] was “inactive” and the Potency [11] was inconclusive: 17.4 µM [cytotoxic, partial curve, poor fit]. For the same compound, the activation [4] was inconclusive: 13%.

For CC(COc1ccccc1)NN (configuration not stated), the Potency [1] was “inactive”, the Potency [3] was inconclusive: 7.5 µM [cytotoxic, single point] and the Potency [12] was “inactive”. For the same compound, the Potency [4] was “inactive”.

For COc1ccc(CN(CCN(C)C)c2ncccn2)cc1, the Potency [1] was inconclusive: 18.8 µM [falling, partial curve, poor fit], the Potency [3] was “inactive” and the Potency [8] was “inactive”. For the same compound, the Potency [12] was “inactive”, the Potency [13] was inconclusive: 2.39 µM [cytotoxic, single point] and the activation [4] was inconclusive: 14.7% [at 35.3 µM].

In the case of C=CC(C)(O)CC/C=C(\C)CCC=C(C)C (configuration not stated), the activation [1] is reported as inconclusive: 28.2%, the Potency [3] is reported as “inactive” and the Potency [13] is reported as inconclusive: 49 µM [cytotoxic, single point]. For the same compound, the Potency [4] was inconclusive: 49 µM [falling, single point].

For CC/C=C\CCOC(=O)CCCCC, the activation [1] was inconclusive: -20.9%, the Potency [6] was “inactive” and the activity change, negative = inhibition [7] was inconclusive: 2.08%. For the same compound, the Potency [13] was inconclusive: 2.19 µM [cytotoxic, single point] and the Potency [4] was “inactive”.

In the case of CC(C)Cc1nccs1, the Potency [1] is reported as “inactive”, the Potency [3] is reported as “inactive” and the Potency [8] is reported as “inactive”. For the same compound, the Potency [4] was “inactive”.

With CC1(O)CSC(C)(O)CS1 (configuration not stated) the Potency [1] was inconclusive: 77 µM, the activity change, negative = inhibition [8] was inconclusive: 0.62% and the Potency [9] was “inactive”. For the same compound, the Potency [11] was inconclusive: 61.6 µM [cytotoxic, single point] and the Potency [4] was inconclusive: 54.9 µM [activator].

In the case of Nc1cc(S(=O)(=O)O)ccc1S(=O)(=O)O, the activation [1] is reported as inconclusive: 16.2%, the ratio activity, negative = inhibition [6] is reported as inconclusive: 20.4% and the Potency [12] is reported as “inactive”. For the same compound, the Potency [4] was “inactive”.

In the case of CCCOC(C(=O)OC1CCN(C)CC1)(c1ccccc1)c1ccccc1, the activation [1] is reported as inconclusive: 0.98%, the Potency [3] is reported as inconclusive: 21.1 µM [cytotoxic, partial curve, poor fit] and the Potency [9] is reported as inconclusive: 13.3 µM [cytotoxic, full curve]. The Potency [10] was inconclusive: 13.3 µM [fluorescent, partial curve, poor fit], the Potency [14] was inconclusive: 33.5 µM [falling, partial curve, poor fit] and the activity change, negative = inhibition [7] was inconclusive: 0.523%. For the same compound, the Potency [4] was inconclusive: 21.3 µM [activator].

For COc1ccc2c(c1)C(=O)N(CCc1ccc(S(=O)(=O)NC(=O)NC3CCCCC3)cc1)C(=O)C2(C)C, the Potency [1] was inconclusive: 26.6 µM [rising, partial curve], the activity change, negative = inhibition [8] was inconclusive: 20% and the Potency [10] was active: 26.6 µM. The Potency [12] was inconclusive: 13.3 µM [fluorescent, partial curve], the Potency [7] was “inactive” and the Potency [4] was “inactive”.

With N[C@@H](CCC(=O)Nc1ccc([N+](=O)[O-])cc1)C(=O)O the Potency [1] was “inactive”, the Potency [8] was “inactive” and the Potency [4] was “inactive”.

In the case of CSc1ccc(Cl)cc1, the Potency [1] is reported as “inactive”, the ratio activity, negative = inhibition [6] is reported as inconclusive: 20.1% and the activity change, negative = inhibition [7] is reported as inconclusive: -2.15% [cytotoxic]. For the same compound, the Potency [13] was “inactive” and the Potency [4] was “inactive”.

With CCCCCC1CCC(=O)O1 (configuration not stated) the Potency [1] was “inactive”, the ratio activity, negative = inhibition [6] was inconclusive: -3.53% and the Potency [13] was inconclusive: 1.23 µM [cytotoxic, single point]. The Potency [4] was “inactive”.

In the case of NNS(=O)(=O)c1ccc(Oc2ccc(S(=O)(=O)NN)cc2)cc1, the Potency [1] is reported as “inactive”, the Potency [8] is reported as “inactive” and the Potency [7] is reported as “inactive”. The Potency [4] was “inactive”.

In the case of CCOC(=O)c1ccccc1, the Potency [1] is reported as “inactive”, the Potency [3] is reported as “inactive” and the Potency [4] is reported as “inactive”.

With CC(CCl)OC(C)CCl (configuration not stated) the Potency [1] was “inactive”, the Potency [6] was inconclusive: 33.6 nM [fluorescent, full curve, poor fit] and the Potency [4] was “inactive”.
